In publication PMC4835244 (Stem Cells Translational Medicine, 2016):

system: hESC-differentiated astrocytes

Row | Structure (SMILES) | Cytotoxicity to astrocytes (CTG)
1 | CC(C)(C)c1ccc(C(=O)CCCN2CCC(OC(c3ccccc3)c3ccccc3)CC2)cc1 [Ebastine] | not to astrocytes
2 | COc1cccc2c1C(=O)c1c(O)c3c(c(O)c1C2=O)C[C@@](O)(C(=O)CO)C[C@@H]3O[C@H]1C[C@H](N2CCO[C@H](OC)C2)[C@H](O)[C@H](C)O1 [Nemorubicin] | not to astrocytes
3 | C/C=C(/C)C(=O)O[C@H]1C(C)=C2[C@H]([C@@H]1OC(=O)CCCCCCC)[C@@](C)(OC(C)=O)C[C@H](OC(=O)CCC)[C@@]1(O)[C@H]2OC(=O)[C@@]1(C)O [Thapsigargin] | not to astrocytes
